Results as given in PubChem BioAssay AID360 (National Center for Advancing Translational Sciences (NCATS), 2006).
Screen size: about 48,000 compounds; about 550 (1.1%) were called active. Another 4% or so got no clear call; they are omitted. No stated cut-off is given here; in the data, active means potency below about 15 µM; inconclusive means mostly about 16 µM to 33 µM; inactive means weaker than that. The list shows a part of the results.

target: Lysosomal acid glucosylceramidase (Homo sapiens) (UniProt P04062); test: Glucocerebrosidase; conditions: purified enzyme, resorufin glucoside fluorescence (screen aimed at inhibitors), 20 min;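 further: the screen sought inhibitors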
Sequence of UniProt P04062 (P04062 whole entry, looked up): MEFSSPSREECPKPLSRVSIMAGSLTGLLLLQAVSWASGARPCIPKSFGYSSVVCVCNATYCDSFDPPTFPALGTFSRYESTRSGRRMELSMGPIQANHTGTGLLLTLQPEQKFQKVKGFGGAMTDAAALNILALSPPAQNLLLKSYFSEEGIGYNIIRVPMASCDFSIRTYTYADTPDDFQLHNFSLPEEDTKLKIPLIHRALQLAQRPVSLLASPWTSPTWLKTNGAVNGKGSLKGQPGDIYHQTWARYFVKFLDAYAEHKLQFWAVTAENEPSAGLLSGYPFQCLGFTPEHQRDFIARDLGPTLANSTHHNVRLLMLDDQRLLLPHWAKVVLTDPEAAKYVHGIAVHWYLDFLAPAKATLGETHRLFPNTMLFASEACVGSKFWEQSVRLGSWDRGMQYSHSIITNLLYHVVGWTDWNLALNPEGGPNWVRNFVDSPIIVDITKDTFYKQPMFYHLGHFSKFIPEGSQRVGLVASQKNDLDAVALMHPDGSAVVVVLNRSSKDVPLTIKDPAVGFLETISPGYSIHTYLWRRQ
Summary of the method: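 Wild-type enzyme at 0.2 nM final in 50mM citric acid/KH2PO4, 10mM sodium taurocholate, 0.01% tween-20, pH 5.9, with resorufin beta-D-glucopyranoside at 30 uM final. Compounds titrated, 20 min at RT, red fluorescence read; AC50 from titration.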
Potency means the concentration at half of the fitted maximal effect.

Potency, inactive:
CCOC(=O)C1CCCN(Cc2c(F)cccc2Cl)C1 (stereo unspecified) > 76.9 µM
O=C(Nc1ccc2nc(-c3ccco3)[nH]c2c1)c1cccs1 > 76.9 µM
c1ccc(-c2nn3c(Cn4cnc5ccccc54)nnc3s2)cc1 > 76.9 µM
CCCCS(=O)(=O)Nc1ccc(Cc2ccncc2)cc1 > 76.9 µM
CCOC(=O)c1nn(-c2ccc(OC)cc2)c(=O)c2c(N)scc12 > 76.9 µM
CC(C)C(NC(=O)c1ccc(Cl)cc1)C(=O)NC1=NCCS1 (stereo unspecified) > 76.9 µM
COCc1nnc(NS(=O)(=O)c2ccccc2)s1 > 76.9 µM
Cc1ccc(C(=O)CSc2nnc(-c3ccco3)n2Cc2ccccc2)cc1 > 76.9 µM
CN1C(=O)C2(NCCc3c2[nH]c2ccccc32)c2ccccc21 (stereo unspecified) > 76.9 µM
COc1cc2[nH]c(=O)n3nc(-c4ccccc4)nc3c2cc1OC > 76.9 µM
CC1(C)NC(=O)N(CC(O)CN2CCCC2)C1=O (stereo unspecified) > 76.9 µM
Cc1ccc(N2CC(C(=O)Nc3ccccn3)CC2=O)cc1 (stereo unspecified) > 76.9 µM
CCOC(=O)c1cccc(NC(=O)CCn2nnc3ccccc32)c1 > 76.9 µM
COC(=O)c1cccc(NC(=O)C2C3CCC(C3)C2C(=O)O)c1 (stereo unspecified) > 76.9 µM
CCCCC(=O)Nc1ccc(C(=O)N2CCN(C)CC2)cc1 > 76.9 µM
CC1CN(C(=O)c2ccccc2C(=O)c2ncc[nH]2)CC(C)O1 (stereo unspecified) > 76.9 µM
CCSc1nc2c(c(=O)[nH]1)C(c1cccnc1)C(C(=O)OC)=C(C)N2 (stereo unspecified) > 76.9 µM
CCOc1ccccc1N1CCN(C(=O)Nc2cccc(Cl)c2)CC1 > 76.9 µM
COC(=O)Nc1ccc(Oc2ccccc2)cc1 > 76.9 µM
Cn1cnnc1Sc1nc2c(c(=O)n(C)c(=O)n2C)n1Cc1ccccc1Cl > 76.9 µM
O=C(Nc1ccccc1N1CCCCC1)c1cccs1 > 76.9 µM
Cc1ccc(Cn2ccc(NC(=O)c3cc(-c4ccc(Br)cc4)on3)n2)cc1 > 76.9 µM
O=C1CCCC/C1=C/Nc1ccc2c(c1)OCO2 > 76.9 µM
O=C(CCc1nc(-c2ccccc2)no1)Nc1cc(C(F)(F)F)ccc1Cl > 76.9 µM
Cn1c(=O)n(C)c2cc(S(=O)(=O)NCc3ccccc3)ccc21 > 76.9 µM
CC(=O)Nc1ccc(-n2c(C)nc(=O)c(-c3ccccc3)c2C)cc1 > 76.9 µM
